Assay results: PubChem BioAssay AID651820 (National Center for Advancing Translational Sciences (NCATS), 2012)
The whole screen tested about 340,000 compounds, of which about 12,000 (3.5%) were called active. The inconclusive results got no clear call from the source; some entries with a clear call stand among them for comparison. The call rests on the fitted dose curve; in most records, active means well fitted inhibition curve with a large enough effect; inconclusive means small, poorly fitted or top-dose-only effect, or another doubt; inactive means no such curve, though single readings can be large or run the other way. Potencies of inconclusive entries are left out as doubtful fits. Residues, ends and D or L forms follow the SMILES beside them. *: point of attachment. Cbz = O=C(OCc1ccccc1)*; CH2Cl = ClC*

experiment: qHTS Assay for Inhibitors of Hepatitis C Virus (HCV); conditions: Huh7.5.1 HCVcc-Cre (HCVcc is cell-culture hepatitis C virus) infection, luciferase reporter, 44 h; series mostly up to 41.8 µM
In short: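 Seed cells (1,000/well) for 4 h; treat with compound and infect with HCVcc-Cre, moi about 0.5. Incubate 44 h, then detect luciferase activity.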
Potency means the concentration at half of the fitted maximal effect; tags describe the fitted curve by direction and shape.

Row | Structure (SMILES) | Potency
1 | CN(c1ccccc1)S(=O)(=O)c1ccc(NC(=S)NC(=O)C2CC2)cc1 | inconclusive [inhibitor, single point]
2 | COc1cccc(N(C(=O)CS(=O)CC(=O)Nc2ccc(F)cc2)C(C(=O)NC2CCCCC2)c2cccs2)c1 (centres undefined) | inconclusive [inhibitor, partial curve]
3 | Cc1nonc1NCn1nnc2ccccc21 | inactive
4 | Cc1ccc(C(=O)N/N=C/C=C/c2ccccc2)cc1 | inactive
5 | COc1cc(C2C3=C(CC(C)(C)CC3=O)NC3=C2C(=O)c2ccccc23)ccc1O (centres undefined) | inconclusive [inhibitor, full curve]
6 | CCC(=O)N1CCN(c2ccc(NC(=S)NC(=O)c3cc4ccccc4o3)cc2)CC1 | inconclusive [inhibitor, partial curve]
7 | Cc1cc(C)n(Cc2ccc(C(=O)N/N=C/c3ccc(-c4ccc([N+](=O)[O-])cc4)o3)o2)n1 | inconclusive [inhibitor, partial curve]
8 | COc1ccc(-c2cn[nH]c2-c2ccc(OC)cc2O)cc1 | inconclusive [inhibitor, single point]
9 | Cc1ccc(Oc2nc3ccccc3n3cccc23)cc1 | active: 7.94 µM
10 | CCOc1ccc(NC(=O)CN(C)C(=O)c2n[nH]c(=O)c3ccccc23)cc1OCC | inconclusive [inhibitor, single point]
11 | COCCN(C(=O)CCc1nnc(Cc2c[nH]c3ccccc23)o1)C(C)C | inactive
12 | O=C(Nc1nc2ccccc2s1)c1ccc([N+](=O)[O-])o1 | inconclusive [inhibitor, partial curve]
13 | CCC1CN(C(=O)N2CCC(C(=O)NCCc3ccccc3)CC2)c2ccccc2O1 (centres undefined) | inconclusive [inhibitor, partial curve]
14 | Oc1ccccc1Nc1nc(-c2ccccc2O)nc2ccccc12 | inconclusive [inhibitor, partial curve, poor fit]
15 | Cc1ccc(C)c2[nH]c(=O)c(C(c3nnnn3Cc3ccccc3)N3CCc4ccccc4C3)cc12 (centres undefined) | inconclusive [inhibitor, partial curve]
16 | COc1ccc(-c2oc3cccnc3c2C#CCO)cc1 | inconclusive [inhibitor, partial curve]
17 | COc1cccc(-c2cc(C(=O)N3CCN(Cc4ccccc4)CC3)no2)c1 | inconclusive [inhibitor, single point]
18 | CC1CCCC(NC(=O)COc2ncnc3ccccc23)C1C (centres undefined) | inactive
19 | CC1Cn2c(nc3sc4c(c3c2=O)CC(C)(C)OC4)N1CCO (centres undefined) | inactive
20 | O=c1c(-c2ccco2)[n+]([O-])c2ccccc2n1OCc1ccccc1[N+](=O)[O-] | inconclusive [inhibitor, single point]
21 | COc1ccc(Cl)cc1NC(=O)CN1C(=O)CCS(=O)(=O)c2ccccc21 | inactive
22 | COc1ccc(C(=O)NCCc2c[nH]c3ccccc23)cc1OC | inconclusive [inhibitor, partial curve]
23 | N#Cc1ccc(OCC(O)CN2CCN(c3ncc(C(F)(F)F)cc3Cl)CC2)cc1 (centres undefined) | inconclusive [inhibitor, partial curve]
24 | Nc1nnnn1-c1cccc([N+](=O)[O-])c1 | inactive
25 | CCSC(=Nc1ccccc1)N1CCOCC1 | inactive

Row | Structure (SMILES) | Potency
26 | COCCOc1ccc(C(F)(F)F)cc1NC(=O)COC(=O)c1cc([N+](=O)[O-])ccc1N1CCOCC1 | inconclusive [inhibitor, partial curve]
27 | CC(=O)Nc1ccc(S(=O)(=O)c2ccc(N)cc2)cc1N | inactive
28 | Cn1c2c(c(=O)n(C)c1=O)C(c1ccc(C(F)(F)F)cc1)CC(=O)N2 (centres undefined) | inactive
29 | CCn1c(CNC(=O)Cc2ccc(OC)cc2)nnc1SCCOc1ccccc1 | inconclusive [inhibitor, partial curve]
30 | CC(=O)NCCOc1cccc2ccccc12 | inconclusive [inhibitor, single point]
31 | Nc1nonc1-n1nnc(C(=O)N/N=C/c2ccc(Cl)cc2Cl)c1CN1CCOCC1 | inconclusive [inhibitor, partial curve]
32 | CC(=O)c1ccccc1OCCCOc1cccc2cccnc12 | inconclusive [inhibitor, single point]
33 | Cc1ccc(Cl)cc1N1CCN(C(=O)c2ccc(CS(=O)Cc3ccc(Cl)cc3)o2)CC1 (centres undefined) | inconclusive [inhibitor, single point]
34 | NC(=S)N=Nc1ccc(NN=C(N)N)cc1 | inactive
35 | CCOC(=O)C1(CCc2ccccc2)CCN(Cc2cnc(N(C)C)s2)CC1 | inconclusive [inhibitor, partial curve]
36 | CCCS(=O)(=O)N1CCN(c2cc3c(cc2[N+](=O)[O-])n(C)c(=O)n3C)CC1 | inconclusive [inhibitor, full curve]
37 | COc1cc(C(=O)N2CCCc3ccccc32)cc(OC)c1OC | inconclusive [inhibitor, single point]
38 | COC(=O)c1[nH]c2ccccc2c1NC(=O)c1ccccc1F | active: 12.6 µM
39 | CNc1cc([N+](=O)[O-])ccc1OCc1ccccc1 | inconclusive [inhibitor, partial curve]
40 | O=c1c2ccccc2[nH]c(=S)n1CCN1CCCCC1 | inactive
41 | CC(C)(C)NC(=O)N1CCN(c2nc(-c3ccccc3)ns2)CC1 | inconclusive [inhibitor, single point]
42 | CCCCCSc1cc(O)c(C(CNC)C(C)C)cc1OC (centres undefined) | inconclusive [inhibitor, partial curve]
43 | CCOC(=O)Cc1csc(NC(=O)COc2ccccc2)n1 | inactive
44 | CC(=O)Nc1ccc(S(=O)(=O)N(C2=NCC(C)S2)c2ccccc2)cc1 (centres undefined) | inconclusive [inhibitor, partial curve]
45 | CC1CCN(CCCNC(=O)CCc2nnc3n(CCc4ccccc4)c(=O)c4ccccc4n23)CC1 | inconclusive [inhibitor, partial curve]
46 | Cc1ccc(OC(=O)c2sc3ncn(C)c(=O)c3c2C)cc1 | inconclusive [inhibitor, full curve, poor fit]
47 | COc1ccc(CCNC(=O)COC(=O)c2ncc(Cl)c(Cl)c2Cl)cc1OC | inactive
48 | COC(=O)c1ccc2[nH]c(CO)c(-c3ccccc3)c2c1 | inconclusive [inhibitor, partial curve]
49 | CCc1ccc(NC(=O)CCCn2nc(CC)n3c(cc4occc43)c2=O)cc1 | inconclusive [inhibitor, full curve]
50 | CCN(CC)CCN(C)C1CCC(c2ccccc2)CC1 (centres undefined) | inconclusive [inhibitor, full curve]

Row | Structure (SMILES) | Potency
51 | COc1ccc(/C=N/Nc2nc(N3CCCCC3)nc(N3CCCCC3)n2)cc1[N+](=O)[O-] | active: 3.55 µM
52 | CN1c2ccccc2C(C)(C)C12CC(c1cccc(S(=O)(=O)N3CCCC3)c1)=NO2 (centres undefined) | inconclusive [inhibitor, partial curve]
53 | CCOc1ccc(S(=O)(=O)N2CCOCC2)cc1NC(=O)CN1C(=O)NC2(CCCCC2)C1=O | inactive
54 | Cc1sc2ccccc2c1CC1=NCCN1 | active: 3.16 µM
55 | COc1ccc(NC(=O)c2ccc(NC(=O)c3ccco3)cc2)c(OC)c1 | inconclusive [inhibitor, partial curve]
56 | CCOC(=O)C1=C(C)NC(=S)N(C(C)=O)C1c1ccc(OC)c(OC)c1 (centres undefined) | inactive
57 | C/C(=N/NS(=O)(=O)c1cc(C)ccc1C)c1ccc2c(c1)OCO2 | inactive
58 | Cc1cc(-c2ccccc2)c(C#N)c(N)n1 | active: 7.94 µM
59 | CCn1c(CNc2nc3ccccc3n2C(C)C)nc2ccccc21 | inactive
60 | CC1(C)Cc2c(c(N3CCOCC3)nc3sc4c(NCc5ccccc5)nnnc4c23)CS1 | inactive
61 | COc1ccc(S(=O)(=O)NNC(=O)Nc2ccc(F)cc2F)c(OC)c1 | inactive
62 | Cc1ccc(S(=O)(=O)N(C)c2cc(S(=O)(=O)N3CCC(C)CC3)c(C)cc2C)cc1 | active: 10 µM
63 | O=C(CN1C(=O)NC2(CCCCC2)C1=O)Nc1ccc(S(=O)(=O)N2CCOCC2)cc1 | inconclusive [inhibitor, partial curve, poor fit]
64 | COc1ccc(C(C)=O)cc1CSc1ccc(S(=O)(=O)N2CCCCC2)cn1 | inconclusive [inhibitor, single point]
65 | CC(=O)c1ccc(N2CCN(C(=O)C3CCC3)CC2)cc1 | inactive
66 | O=C(c1ccc(COc2ccccc2Cl)o1)N1CCOCC1 | inactive
67 | CCCCOc1ccc(Cl)cc1CSc1n[nH]c(C)n1 | inactive
68 | COc1ccc2c(c1)OC[C@H]1[C@H]2N2C(=O)c3cc(C)ccc3NC(=O)[C@@]2(C)[C@H]1c1ccccc1 | inconclusive [inhibitor, single point]
69 | O=C1/C(=C/c2ccco2)CCc2ccccc21 | inactive
70 | CCOc1ccccc1C(=O)N(Cc1cccs1)C1CCS(=O)(=O)C1 (centres undefined) | inconclusive [inhibitor, single point]
71 | C#CCOc1nc(Nc2cccc([N+](=O)[O-])c2)nc(OCC#C)n1 | inconclusive [inhibitor, partial curve, poor fit]
72 | Cc1nc(=S)c2ccccc2[nH]1 | inconclusive [inhibitor, single point]
73 | CCCC(=O)NCCc1nc2ccccc2n1C | inactive
74 | CC(C)CC(NC(=O)OCc1ccccc1)C(=O)NC(Cc1ccccc1)C(=O)CCl (stereo not drawn) (Cbz-Leu-Phe-CH2Cl; configuration not given here) | inconclusive [inhibitor, single point]
